The record followed here is ChEMBL document CHEMBL1154674, “Synthesis and evaluation of three 18F-labeled aminophenylbenzothiazoles as amyloid imaging agents” (J Med Chem, 2009).

Molecules are shown by their SMILES. Further values from the same series stand in other lists.

Holding throughout (format): ADME, organism-based, Macaca mulatta
A short description of data set [1]: Drug level in normal rhesus monkey cerebellum assessed as standard uptake value at 81.2 MBq, iv after 155 mins by microPET. The settings on record: in vivo.
A short description of data set [2]: Drug level in normal rhesus monkey white matter assessed as standard uptake value at 81.2 MBq, iv after 14 mins by microPET. The settings on record: in vivo.
Data set [3] is described as follows: Drug level in normal rhesus monkey frontal cortex assessed as standard uptake value at 81.2 MBq, iv after 37.5 mins by microPET. The settings on record: in vivo, 0.625 h.
Data set [4] is described as follows: Drug level in normal rhesus monkey parietal cortex assessed as standard uptake value at 81.2 MBq, iv after 10 mins by microPET. The settings on record: in vivo.
Data set [5] in a line: Drug level in normal rhesus monkey cerebellum assessed as standard uptake value at 81.2 MBq, iv after 95 mins by microPET. The following applies: in vivo.
A short description of data set [6]: Drug level in normal rhesus monkey white matter assessed as standard uptake value at 81.2 MBq, iv after 12 mins by microPET. The following applies: in vivo, 0.2 h.
Data set [7] can be described thus: Drug level in normal rhesus monkey pons assessed as standard uptake value at 81.2 MBq, iv after 95 mins by microPET. The following applies: in vivo.
Data set [8] in a line: Drug level in normal rhesus monkey parietal cortex assessed as standard uptake value at 81.2 MBq, iv after 4.5 mins by microPET. The settings on record: in vivo, 0.075 h.
Data set [9] is described as follows: Drug level in normal rhesus monkey cerebellum assessed as standard uptake value at 81.2 MBq, iv after 6 mins by microPET. The settings on record: in vivo, 0.1 h.
Data set [10] in a line: Drug level in normal rhesus monkey cerebellum assessed as standard uptake value at 81.2 MBq, iv after 52.5 mins by microPET. The following applies: in vivo, 0.875 h.
Data set [11] in a line: Drug level in normal rhesus monkey parietal cortex assessed as standard uptake value at 81.2 MBq, iv after 85 mins by microPET. The settings on record: in vivo.
A short description of data set [12]: Drug level in normal rhesus monkey thalamus assessed as standard uptake value at 81.2 MBq, iv after 22.5 mins by microPET. The following applies: in vivo, 0.375 h.
A short description of data set [13]: Drug level in normal rhesus monkey white matter assessed as standard uptake value at 81.2 MBq, iv after 95 mins by microPET. The settings on record: in vivo.
Data set [14] in a line: Drug level in normal rhesus monkey frontal cortex assessed as standard uptake value at 109.4 MBq, iv after 111 mins by microPET. The following applies: in vivo.
The nature of data set [15]: Drug level in normal rhesus monkey frontal cortex assessed as standard uptake value at 109.4 MBq, iv after 27.5 mins by microPET. The following applies: in vivo.
Data set [16] in a line: Drug level in normal rhesus monkey white matter assessed as standard uptake value at 109.4 MBq, iv after 15.5 mins by microPET. The settings on record: in vivo.
Data set [17] in a line: Drug level in normal rhesus monkey white matter assessed as standard uptake value at 109.4 MBq, iv after 123 mins by microPET. The following applies: in vivo, 2.05 h.
Data set [18] in a line: Drug level in normal rhesus monkey white matter assessed as standard uptake value at 109.4 MBq, iv after 42.5 mins by microPET. The settings on record: in vivo.
The nature of data set [19]: Drug level in normal rhesus monkey thalamus assessed as standard uptake value at 109.4 MBq, iv after 63 mins by microPET. The following applies: in vivo, 1.05 h.
A short description of data set [20]: Drug level in normal rhesus monkey parietal cortex assessed as standard uptake value at 109.4 MBq, iv after 3.5 mins by microPET. The following applies: in vivo.
The nature of data set [21]: Drug level in normal rhesus monkey thalamus assessed as standard uptake value at 109.4 MBq, iv after 1.5 mins by microPET. The settings on record: in vivo, 0.025 h.
Data set [22] is described as follows: Drug level in normal rhesus monkey parietal cortex assessed as standard uptake value at 109.4 MBq, iv after 47.5 mins by microPET. The settings on record: in vivo.
The nature of data set [23]: Drug level in normal rhesus monkey white matter assessed as standard uptake value at 109.4 MBq, iv after 69 mins by microPET. The following applies: in vivo, 1.15 h.
A short description of data set [24]: Drug level in normal rhesus monkey white matter assessed as standard uptake value at 109.4 MBq, iv after 37.5 mins by microPET. The settings on record: in vivo, 0.625 h.
Data set [25] can be described thus: Drug level in normal rhesus monkey white matter assessed as standard uptake value at 109.4 MBq, iv after 81 mins by microPET. The following applies: in vivo, 1.35 h.
Data set [26] is described as follows: Drug level in normal rhesus monkey cerebellum assessed as standard uptake value at 109.4 MBq, iv after 0.375 mins by microPET. The settings on record: in vivo, 22 s.
Data set [27] can be described thus: Drug level in normal rhesus monkey thalamus assessed as standard uptake value at 109.4 MBq, iv after 27.5 mins by microPET. The following applies: in vivo.
A short description of data set [28]: Drug level in normal rhesus monkey pons assessed as standard uptake value at 109.4 MBq, iv after 129 mins by microPET. The settings on record: in vivo, 2.15 h.
Data set [29] is described as follows: Drug level in normal rhesus monkey white matter assessed as standard uptake value at 109.4 MBq, iv after 129 mins by microPET. The following applies: in vivo, 2.15 h.
Data set [30] can be described thus: Drug level in normal rhesus monkey cerebellum assessed as standard uptake value at 109.4 MBq, iv after 69 mins by microPET. The settings on record: in vivo, 1.15 h.
Data set [31] is described as follows: Drug level in normal rhesus monkey frontal cortex assessed as standard uptake value at 96.3 MBq, iv after 165 mins by microPET. The following applies: in vivo, 2.75 h.
A short description of data set [32]: Drug level in normal rhesus monkey pons assessed as standard uptake value at 96.3 MBq, iv after 2.5 mins by microPET. The settings on record: in vivo.
Data set [33] in a line: Drug level in normal rhesus monkey cerebellum assessed as standard uptake value at 96.3 MBq, iv after 2.5 mins by microPET. The settings on record: in vivo.
The nature of data set [34]: Drug level in normal rhesus monkey parietal cortex assessed as standard uptake value at 96.3 MBq, iv after 52.5 mins by microPET. The settings on record: in vivo, 0.875 h.
Data set [35] in a line: Drug level in normal rhesus monkey white matter assessed as standard uptake value at 96.3 MBq, iv after 115 mins by microPET. The following applies: in vivo.
Data set [36] in a line: Drug level in normal rhesus monkey white matter assessed as standard uptake value at 96.3 MBq, iv after 17.5 mins by microPET. The settings on record: in vivo.
The nature of data set [37]: Drug level in normal rhesus monkey parietal cortex assessed as standard uptake value at 96.3 MBq, iv after 3.5 mins by microPET. The following applies: in vivo.
Data set [38] is described as follows: Drug level in normal rhesus monkey parietal cortex assessed as standard uptake value at 96.3 MBq, iv after 75 mins by microPET. The following applies: in vivo, 1.25 h.
Data set [39] is described as follows: Drug level in normal rhesus monkey pons assessed as standard uptake value at 96.3 MBq, iv after 115 mins by microPET. The following applies: in vivo.
Data set [40] can be described thus: Drug level in normal rhesus monkey pons assessed as standard uptake value at 96.3 MBq, iv after 3.5 mins by microPET. The settings on record: in vivo.
The nature of data set [41]: Drug level in normal rhesus monkey parietal cortex assessed as standard uptake value at 96.3 MBq, iv after 4.5 mins by microPET. The settings on record: in vivo, 0.075 h.
The nature of data set [42]: Drug level in normal rhesus monkey white matter assessed as standard uptake value at 96.3 MBq, iv after 0.5 mins by microPET. The settings on record: in vivo.
Data set [43] can be described thus: Drug level in normal rhesus monkey white matter assessed as standard uptake value at 96.3 MBq, iv after 42.5 mins by microPET. The following applies: in vivo.
The nature of data set [44]: Drug level in normal rhesus monkey cerebellum assessed as standard uptake value at 96.3 MBq, iv after 65 mins by microPET. The settings on record: in vivo.

For `CNc1ccc2nc(-c3ccc([18F])cc3)sc2c1`, the SUV is 1.469 in data set [1]; 3.424 in [2]; 5.484 in data set [3]; 5.056 in [4]; 1.712 in data set [5]; 3.656 in data set [6]. The SUV in data set [7] was determined as 5.269; in [8], 4.922; in [9] it was 2.617; in data set [10] it was 2.432; in data set [11] it was 2.948; in [12], 5.149. For the same compound, in [13], the SUV was 3.97.
In the case of `Nc1ccc2nc(-c3ccc([18F])cc3)sc2c1`, the SUV in data set [14] came out at 4.22; in data set [15], 5.2; in data set [16], 2.92; in data set [17], 3.93; in data set [18], 3.37; in [19], 5.35. The SUV is 5 in data set [20]; 3.7 in [21]; 4.52 in data set [22]; 3.64 in data set [23]; 3.27 in data set [24]; 3.62 in data set [25]. In addition, the SUV in [26] was found to be 0.6; in [27] it was 5.5; in [28], 4.86; in data set [29] it was 3.85; in data set [30], 2.86.
As for `CN(C)c1ccc2nc(-c3ccc([18F])cc3)sc2c1`, the SUV in [31] came to 1.45; in data set [32], 1.12; in data set [33] it was 1.56; in data set [34], 1.69; in [35], 1.57; in [36], 1.25. Also, the SUV in data set [37] turned out to be 1.99; in data set [38] it was 1.5; in data set [39], 1.95; in data set [40], 1.09; in [41], 2.1; in data set [42], 0.36. The SUV in data set [43] stood at 1.42; in [44] it was 1.18.
